# Results published in the supplement of paper PMC8728848.
# The other results are listed elsewhere or left out.
# B1: BDCA-2 (Homo sapiens), Q8WTT0 (protein)
# chain: MVPEEEPQDREKGLWWFQLKVWSMAVVSILLLSVCFTVSSVVPHNFMYSKTVKRLSKLREYQQYHPSLTCVMEGKDIEDWSCCPTPWTSFQSSCYFISTGMQSWTKSQKNCSVMGADLVVINTREEQDFIIQNLKRNSSYFLGLSDPGGRRHWQWVDQTPYNENVTFWHSGEPNNLDERCAIINFRSSEEWGWNDIHCHVPQKSICKMKKIYI
# Columns and labels:
# Assay in all cases: glycan array binding signal (z-score within array); higher = stronger binding
# Conditions in all cases: glycan notation: IUPAC condensed, linker removed
# [1] = target: Fuc(a1-2)Gal(b1-4)GlcNAc(b1-3)Gal(b1-4)GlcNAc(b1-2)Man(a1-3)[Fuc(a1-2)Gal(b1-4)GlcNAc(b1-3)Gal(b1-4)GlcNAc(b1-2)Man(a1-6)]Man(b1-4)GlcNAc(b1-4)GlcNAc
# Summary of the method: (§1)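 Glycan array data came from 3228 arrays in the Consortium for Functional Glycomics database, and only arrays with an available protein sequence were kept. Glycan names were put into IUPAC-condensed notation, and columns mapping to the same glycan were averaged. The binding signal is a within-array Z-score, averaged across arrays of one protein sequence run at different concentrations or buffers and across linkers. A negative Z-score can be read as non-binding.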
# [2] = target: Fuc(a1-2)Gal(b1-4)GlcNAc(b1-3)Gal(b1-4)GlcNAc(b1-3)Gal(b1-4)GlcNAc
# Summary of the method: as §1
# [3] = target: Fuc(a1-2)Gal(b1-4)GlcNAc(b1-3)GalNAc
# Summary of the method: as §1
# [4] = target: Fuc(a1-2)Gal(b1-4)GlcNAc(b1-3)[Fuc(a1-2)Gal(b1-4)GlcNAc(b1-6)]GalNAc
# Summary of the method: as §1
# [5] = target: Fuc(a1-2)Gal(b1-4)GlcNAc(b1-3)[Fuc(a1-3)[Gal(b1-4)]GlcNAc(b1-6)]Gal(b1-4)Glc
# Summary of the method: as §1
# [6] = target: Fuc(a1-2)Gal(b1-4)GlcNAc(b1-6)GalNAc
# Summary of the method: as §1
# [7] = target: Fuc(a1-2)Gal(b1-4)GlcNAc6S
# Summary of the method: as §1
# [8] = target: Fuc(a1-2)Gal(b1-4)[Fuc(a1-3)]GlcNAc
# Summary of the method: as §1
# [9] = target: Fuc(a1-2)Gal(b1-4)[Fuc(a1-3)]GlcNAc(b1-2)Man(a1-3)[Fuc(a1-2)Gal(b1-4)[Fuc(a1-3)]GlcNAc(b1-2)Man(a1-6)]Man(b1-4)GlcNAc(b1-4)[Fuc(a1-6)]GlcNAc
# Summary of the method: as §1
# [10] = target: Fuc(a1-2)Gal(b1-4)[Fuc(a1-3)]GlcNAc(b1-2)[Fuc(a1-2)Gal(b1-4)[Fuc(a1-3)]GlcNAc(b1-4)]Man(a1-3)[Fuc(a1-2)Gal(b1-4)[Fuc(a1-3)]GlcNAc(b1-2)Man(a1-6)]Man(b1-4)GlcNAc(b1-4)GlcNAc
# Summary of the method: as §1
# [11] = target: Fuc(a1-2)Gal(b1-4)[Fuc(a1-3)]GlcNAc(b1-3)Gal(b1-4)[Fuc(a1-3)]GlcNAc
# Summary of the method: as §1
# [12] = target: Fuc(a1-2)Gal(b1-4)[Fuc(a1-3)]GlcNAc(b1-3)Gal(b1-4)[Fuc(a1-3)]GlcNAc(b1-3)Gal(b1-4)[Fuc(a1-3)]GlcNAc
# Summary of the method: as §1
# [13] = target: Fuc(a1-2)Gal(b1-4)[Fuc(a1-3)]GlcNAc(b1-3)GalNAc
# Summary of the method: as §1
# [14] = target: Fuc(a1-2)Gal(b1-4)[Fuc(a1-3)]GlcNAc(b1-3)[Neu5Ac(a2-6)Gal(b1-4)GlcNAc(b1-6)]Gal(b1-4)Glc
# Summary of the method: as §1
# [15] = target: Fuc(a1-2)Gal3S(b1-4)GlcNAc
# Summary of the method: as §1
# [16] = target: Fuc(a1-2)Gal6S(b1-3)GlcNAc
# Summary of the method: as §1
# [17] = target: Fuc(a1-2)Gal6S(b1-3)GlcNAc6S
# Summary of the method: as §1
# Fuc(a1-2)Gal6S(b1-4)Glc = target: Fuc(a1-2)Gal6S(b1-4)Glc
# Summary of the method: as §1
# [18] = target: Fuc(a1-2)Gal6S(b1-4)Glc6S
# Summary of the method: as §1
# Fuc(a1-2)GlcNAc = target: Fuc(a1-2)GlcNAc
# Summary of the method: as §1
# Fuc(a1-2)[Gal(a1-3)]Gal = target: Fuc(a1-2)[Gal(a1-3)]Gal
# Summary of the method: as §1
# [19] = target: Fuc(a1-2)[Gal(a1-3)]Gal(b1-3)GalNAc
# Summary of the method: as §1
# [20] = target: Fuc(a1-2)[Gal(a1-3)]Gal(b1-3)GalNAc(b1-3)Gal(a1-4)Gal(b1-4)Glc
# Summary of the method: as §1
# [21] = target: Fuc(a1-2)[Gal(a1-3)]Gal(b1-3)GlcNAc
# Summary of the method: as §1
# [22] = target: Fuc(a1-2)[Gal(a1-3)]Gal(b1-3)GlcNAc(b1-2)Man(a1-3)[Fuc(a1-2)[Gal(a1-3)]Gal(b1-3)GlcNAc(b1-2)Man(a1-6)]Man(b1-4)GlcNAc(b1-4)GlcNAc
# Summary of the method: as §1
# [23] = target: Fuc(a1-2)[Gal(a1-3)]Gal(b1-3)GlcNAc(b1-2)Man(a1-3)[Fuc(a1-2)[Gal(a1-3)]Gal(b1-3)GlcNAc(b1-2)Man(a1-6)]Man(b1-4)GlcNAc(b1-4)[Fuc(a1-6)]GlcNAc
# Summary of the method: as §1
# [24] = target: Fuc(a1-2)[Gal(a1-3)]Gal(b1-3)GlcNAc(b1-3)GalNAc
# Summary of the method: as §1
# [25] = target: Fuc(a1-2)[Gal(a1-3)]Gal(b1-3)GlcNAc(b1-6)GalNAc
# Summary of the method: as §1
# [26] = target: Fuc(a1-2)[Gal(a1-3)]Gal(b1-4)Glc
# Summary of the method: as §1
# [27] = target: Fuc(a1-2)[Gal(a1-3)]Gal(b1-4)GlcNAc
# Summary of the method: as §1
binder,measurement,setting,value
B1,glycan array binding signal (z-score),[1],-0.144
same,glycan array binding signal (z-score),[2],-0.307
same,glycan array binding signal (z-score),[3],-0.147
same,glycan array binding signal (z-score),[4],-0.079
same,glycan array binding signal (z-score),[5],-0.171
same,glycan array binding signal (z-score),[6],-0.153
same,glycan array binding signal (z-score),[7],-0.165
same,glycan array binding signal (z-score),[8],-0.074
same,glycan array binding signal (z-score),[9],-0.13
same,glycan array binding signal (z-score),[10],-0.137
same,glycan array binding signal (z-score),[11],-0.223
same,glycan array binding signal (z-score),[12],-0.192
same,glycan array binding signal (z-score),[13],-0.077
same,glycan array binding signal (z-score),[14],-0.177
same,glycan array binding signal (z-score),[15],-0.178
same,glycan array binding signal (z-score),[16],-0.143
same,glycan array binding signal (z-score),[17],0.012
same,glycan array binding signal (z-score),Fuc(a1-2)Gal6S(b1-4)Glc,-0.175
same,glycan array binding signal (z-score),[18],-0.178
same,glycan array binding signal (z-score),Fuc(a1-2)GlcNAc,-0.409
same,glycan array binding signal (z-score),Fuc(a1-2)[Gal(a1-3)]Gal,-0.099
same,glycan array binding signal (z-score),[19],-0.106
same,glycan array binding signal (z-score),[20],-0.11
same,glycan array binding signal (z-score),[21],-0.03
same,glycan array binding signal (z-score),[22],-0.15
same,glycan array binding signal (z-score),[23],-0.13
same,glycan array binding signal (z-score),[24],-0.103
same,glycan array binding signal (z-score),[25],-0.161
same,glycan array binding signal (z-score),[26],-0.113
same,glycan array binding signal (z-score),[27],-0.008
